Measurements: ChEMBL document CHEMBL1201862, “PubChem BioAssay data set” (2004)
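In this assay, cells in 96-well plates receive the compound at five concentrations for 48 hours. Endpoints are linearly interpolated between the surrounding concentrations. GI50: concentration for 50% inhibition of growth.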 The source made the active and inactive calls. No stated cut-off is given here; in the data, active = GI50 up to about 1.1 µM and inactive = higher. Square brackets hold non-standard residues; d marks the D form. Peptide text beside a SMILES is read from it. * marks the point of attachment. Tyr(3-Br) = N[C@@H](Cc1ccc(O)c(Br)c1)C(=O)O; Boc = CC(C)(C)OC(=O)*

The compounds below were run on NCI-H322M (assay: growth of human tumour cells (NCI), 48 h).

Structure (SMILES)	GI50
O=C1c2ccccc2C(=O)N1CCCC(=O)n1cc(F)c(=O)[nH]c1=O	inactive: 27.7 µM
Cc1cccc(NC(=S)NNC(=O)c2cc(-c3ccccc3)nc3ccccc23)c1	inactive: 38.7 µM
CCCCC(=O)NC1(c2cc3ccccc3s2)CCCCC1	inactive: > 100 µM
CCC1=CC2CN3CCc4c([nH]c5ccccc45)C(C(=O)OC)(C2)C13 (stereo unspecified)	inactive: 44.9 µM
O=C(O)C1NCCc2c1[nH]c1ccccc21 (stereo unspecified)	inactive: > 100 µM
OC[C@]1(n2nc3ccccc3n2)OC[C@@H]1c1ccccc1	inactive: > 100 µM
Cc1ccc(S(=O)(=O)NNC(=O)c2sc(-c3nc(C)c(C(=O)NNS(=O)(=O)c4ccc(C)cc4)s3)nc2C)cc1	inactive: > 100 µM
CCOC(=O)[C-]([N+]#N)[Si](C)(C)C	inactive: 16 µM
Cc1ccccc1-n1c(C)nc2c1C(=O)c1ccccc1C2=O	inactive: 81.7 µM
Cc1ccc(NC(=O)CC2C(=O)Nc3ccccc3[S+]2[O-])c(C)c1 (stereo unspecified)	inactive: 29.5 µM
c1ccc2c(c1)Nc1c3ccccc3nc3cccc-2c13	inactive: 1.17 µM
COc1cc(/C=C/C=C2\CCC/C(=C\C=C\c3ccc(O)c(OC)c3)C2=O)ccc1O	inactive: 13.5 µM
N#C[C@H](c1ccccn1)c1nc2ccccc2nc1Cl	inactive: > 100 µM
N=C(N)Nc1ccc(CC(N)C(=O)O)cc1 (stereo unspecified)	inactive: > 12.5 µM
COc1cc(S(=O)(=O)Nc2nc(-c3ccc(N4C(=O)/C(=C/C=C/c5ccccc5)N=C4c4ccccc4)cc3)cs2)ccc1Cl	inactive: > 100 µM
COc1cc(C/C=C/c2ccccc2)c(OC)cc1O [VIOLASTYRENE]	inactive: 44.4 µM
N/C(=N\O)N/N=C\c1ccccc1O	inactive: 20.2 µM
O=C(c1ccccc1)c1nc2c(Cl)ccc(Cl)c2cc1C(Br)Br	active: 0.929 µM
CC(=O)N[C@@H](Cc1ccc(O)cn1)C(=O)NCc1ccc2c(c1)OCO2	inactive: > 100 µM
N=C(N)SCc1cn2ccccc2n1	inactive: > 100 µM
CC1CC2C(=O)N(c3ccccc3)C(=O)C2c2c1c1ccccc1n2Cc1ccccc1 (stereo unspecified)	inactive: > 100 µM
COC(=O)[C@H](Cc1ccc(O)c(Br)c1)NC(=O)[C@H](Cc1ccc(O)cc1)NC(=O)OC(C)(C)C (Boc-Tyr-[Tyr(3-Br)]-OMe)	inactive: 86.5 µM
COc1cc(/C=C2/CCCc3ccccc3C2=O)cc(OC)c1OC	inactive: 24.4 µM
O=C1Oc2cc3c(c4cccc1c24)O[C@H](c1ccccc1)[C@@H](c1ccccc1)[C@@H]3c1ccc(Cl)cc1	inactive: > 100 µM

Structure (SMILES)	GI50
COC(=O)c1c(O)ccc2c1c1c(n2Cc2ccc(OC)cc2)C(=O)c2ccccc2C1	inactive: > 100 µM
Cc1cnc2c(c1)C(=O)N(c1ccc(Br)cc1)S2(=O)=O	inactive: > 100 µM
Cc1cc(S(=O)(=O)/N=C(\NN)Nc2ccc(Cl)cc2)c(S)cc1Cl	inactive: 10 µM
Nc1ccc2c(c1)CC1c3ccccc3C(C2)c2ccccc21	inactive: > 100 µM
O=C1CC(c2ccccc2Cl)C2(C(=O)NC(=S)NC2=O)C(c2ccccc2Cl)C1 (stereo unspecified)	active: 0.252 µM
CN(C)C(=S)/N=c1\ssc(=S)n1Cc1cccnc1	inactive: 7.96 µM
O=C1c2ccccc2C(=O)c2c(/C=C\N3CCCCC3)ccnc21	inactive: 2.81 µM
O=C(O)C1(Cc2ccccc2)Cc2cc3c(cc2C1)CCC3	inactive: > 100 µM
O=C(O)CCc1nc2c(n1-c1ccccc1)C(=O)c1ccccc1C2=O	inactive: > 100 µM
Nc1ccc2nc(Nc3ccc(F)cc3)cnc2c1	inactive: > 100 µM
Cn1nc(-c2ccccc2)c2c(/C=C/c3ccccc3)onc2c1=O	inactive: > 100 µM
COc1ccc(C=C2C(=O)NC(=S)NC2=O)c2ccccc12	inactive: 44.2 µM
O/N=N\c1nc(-c2ccccn2)nc2ccccc12	inactive: 19.7 µM
BrC(Br)=C1C(=C(Br)Br)C(Br)C1Br (stereo unspecified)	inactive: 2.07 µM
COCC(=O)CP(=O)(OC)OC	inactive: > 100 µM
C/C=C/c1c(O)c(=O)c2c(OC)cc(OC)c3c4c(OC)cc(OC)c5c(=O)c(O)c(/C=C/C)c(c1c23)c54	inactive: 19 µM
COc1ccc(-c2cc(=O)c3c(O)c(OC)c(OC)c(OC)c3o2)cc1OC [5-DEMETHYLNOBILETIN]	inactive: > 100 µM
CCN(C(=S)N[C@@H](Cc1ccccc1)C(=O)N[C@@H](CC(C)C)C(=O)OC)c1ccccc1	inactive: > 100 µM
CCOP(=O)(/C=C/n1cc(C)c(=O)[nH]c1=O)OCC	inactive: > 100 µM
O=Cc1coc2ccccc2c1=O	inactive: > 100 µM
Nc1nc(CCl)nc(N2CCOCC2)n1	inactive: 85.1 µM
C[C@H]1S[C@@H](c2ccc(Cl)cc2Cl)N(NC(=O)c2ccncc2)C1=O	inactive: > 100 µM
O=C1c2scc(-c3ccc(F)cc3)c2-n2cccc21	inactive: 48.9 µM
C/C(Cl)=N\OC(=O)Nc1ccc([N+](=O)[O-])cc1	inactive: > 100 µM

Structure (SMILES)	GI50
O=S(=O)(O)c1ccc2cc(/N=N\c3cc(S(=O)(=O)O)c4cccnc4c3O)ccc2c1	inactive: > 100 µM
O=C(CCCN1CCc2[nH]c3cc(F)ccc3c2C1)c1ccc(F)cc1	inactive: 12.7 µM
CN(CCc1ccc(Cl)c(Cl)c1)CCN(C)CCN1CCCC1	inactive: 10.1 µM
CC(=O)OC(C)(C)CCC(=O)[C@](C)(O)[C@H]1[C@H](O)C[C@@]2(C)[C@@H]3CCc4c(cc(OC5OC(CO)C(O)C(O)C5O)c(O)c4C)C3(C)C(=O)C[C@]12C (stereo partly specified)	inactive: > 100 µM
Cc1cccc(C2=C/C(=C(\SS/C(C(=O)c3ccc(OCC(=O)O)c(Cl)c3Cl)=C3\C=C(c4cccc(C)c4)SS3)C(=O)c3ccc(OCC(=O)O)c(Cl)c3Cl)SS2)c1	inactive: 43.6 µM
CCCCc1c2c(nc3c1CC/C(=C\c1ccc([N+](=O)[O-])cc1)C3=O)CCCC2	inactive: 2.9 µM
CNC(=O)N(C)COC	inactive: > 100 µM
CCOC(=O)C(=[N+]=[N-])C(=O)C1(C(=O)OCC)CCN(C(=O)c2ccccc2)C1=O (stereo unspecified)	inactive: > 100 µM
COC1=CC2C(c3cc4ccccc4n3S(=O)(=O)c3ccccc3)CC1CN2C(=O)OCc1ccccc1 (stereo unspecified)	inactive: 33.8 µM
O=C1C2CCN(CC2)C1(CO)CO	inactive: 62.4 µM
CC1(Br)S(=O)(=O)OCCOS1(=O)=O	inactive: > 100 µM
CC(N)C(C)Cc1ccccc1 (stereo unspecified)	inactive: > 100 µM
CC(C)=CCC[C@@H](C)C1=C(O)C(=O)C(C)=C(Nc2ccccc2I)C1=O	inactive: 17.7 µM
COc1ccc2nc3c(c(N)c2c1)C1CCC3C1(C)C (stereo unspecified)	inactive: 46.8 µM
CC(SC(=S)N1CCOCC1)c1cc2oc(=O)n(C)c2cc1Cl (stereo unspecified)	inactive: > 100 µM
CCCCc1ccc(-n2sc3ncc(C)cc3c2=O)cc1	inactive: > 100 µM
CCOC(=O)/C(C(=S)NC)=C(/N)N1CCCC1	inactive: > 100 µM
Cc1cc2c3c(coc3c1-c1c(C)cc3c4c(coc14)C(=O)C(O)=C3C(C)C)C(=O)C(O)=C2C(C)C	inactive: 5.61 µM
CC1(C)OP(=O)(c2ccccc2)C=C1Sc1ccc([N+](=O)[O-])cc1[N+](=O)[O-] (stereo unspecified)	inactive: > 100 µM
CCOC(=O)CSc1nc(-c2ccc(OC)cc2)c(C#N)c(=O)[nH]1	inactive: > 100 µM
Nc1cc2ncnc(Nc3cccc(Br)c3)c2cn1	inactive: 4.48 µM
O=[N+]([O-])c1cccc(C2=NN(c3ccccc3)C3c4cc(Br)ccc4OCC23)c1 (stereo unspecified)	inactive: > 100 µM
CN(CCO)/N=N/c1n[nH]cc1C(N)=O	inactive: > 100 µM
COc1ccccc1/C=C1\C(=O)N(C(=O)c2ccc(NC(C)=O)cc2)N=C1C	inactive: > 100 µM

Structure (SMILES)	GI50
C/C(=C\Cc1cc(O)ccc1O)CCc1c(C)cc(O)c(C=O)c1C [PANICEIN B3]	inactive: 29.6 µM
Nc1nc(Cl)c2nnn(CC3CCC(CO)C3)c2n1 (stereo unspecified)	inactive: > 100 µM
C=CCn1c2ccccc2[n+]2cc([N+](=O)[O-])ccc12	inactive: 51.1 µM
CN(C)CC(O)c1ccc(Cl)c2ccccc12 (stereo unspecified)	inactive: > 100 µM
O=P(O)(O)c1ccc(-c2ccc(I)cc2)cc1	inactive: > 100 µM
CN(C)c1ccc(/C=N/NC2=N/C(=C\c3ccco3)C(=O)N2)cc1	inactive: > 100 µM
Cc1c(Cl)ccc2c1NC(=O)C2(O)CC(=O)c1ccc(Cl)cc1Cl (stereo unspecified)	inactive: > 50 µM
O=c1c2cc(I)ccc2nc(Sc2ccc([N+](=O)[O-])cc2[N+](=O)[O-])n1Cc1ccccc1	inactive: 10.8 µM
Cc1cc2c(c(=O)o1)C1=S(SC(c3ccccc3)=C1)S2 (stereo unspecified)	inactive: 13.9 µM
Cc1c(C)c2c(c(N)c1C#N)C(=O)N(Nc1ccccc1)C2=O	active: 0.122 µM
CCC/C(Cl)=N/OC(=O)Nc1cccc(F)c1	inactive: 17 µM
C[C@H]1[C@H](C)N1CC(O)Cn1ccnc1[N+](=O)[O-] (stereo partly specified)	inactive: > 100 µM
O=S1(=O)OCCOS(=O)(=O)C1Cl	inactive: > 100 µM
Cc1cc2nn(C3CCCCO3)nc2cc1C (stereo unspecified)	inactive: > 100 µM
O=C(/C=C/c1cccs1)c1ccc(C(=O)/C=C/c2cccs2)cc1	inactive: > 100 µM
CCC1(O)C(=O)OCc2c1cc1n(c2=O)Cc2cc3cc(N)ccc3nc2-1 (stereo unspecified)	active: 0.108 µM
CN1CC2=C(N=C(S)NC2c2ccccc2Cl)/C(=C/c2ccccc2Cl)C1 (stereo unspecified)	inactive: > 100 µM
CN(C)c1ccc(/C=N\N2C(=O)c3ccccc3C2=O)cc1	inactive: > 100 µM
C=CCC1C(O[Si](C)(C)C(C)(C)C)C(CO[Si](C)(C)C(C)(C)C)OC1n1ccc(=O)[nH]c1=O (stereo unspecified)	inactive: 1.66 µM
COc1cc(C2C(Cl)C(=O)N2c2c(C)n(C)n(-c3ccccc3)c2=O)ccc1O (stereo unspecified)	inactive: 58.3 µM
COc1ccc(S(=O)(=O)N2C(=O)CCC2C(=O)NN)cc1 (stereo unspecified)	inactive: > 100 µM
C=C(C)/C=C/C(O)[C@](C)(O)[C@H]1[C@H](O)C[C@@]2(C)[C@@H]3CCc4c(cc(OC5OC(CO)C(O)C(O)C5O)c(O)c4C)C3(C)C(=O)C[C@]12C (stereo partly specified)	inactive: > 100 µM
CCO/C=C/C(C)C1(C(=O)OCC)CCCCC1=O (stereo unspecified)	inactive: > 100 µM
NC(=S)N/N=C1\CCCCC1C(O)(C(F)(F)Cl)C(F)(F)Cl (stereo unspecified)	inactive: > 10 µM
